In article PMC8739753:

Assays:
[1] = system: CC1=CC(=O)[C@H]2O[C@]1(C)O[C@H]([C@H](C)/C=C(C)/C=C/C(O)=C1/C(=O)CNC1=O)[C@H]2C; experiment: purified protein, by the assay type; conditions: other: compound as substrate; P450 TamI L101A_L295I
[2] = system: CC(/C=C/C(O)=C1/C(=O)CNC1=O)=C\[C@@H](C)[C@H]1O[C@@]2(C)O[C@H](C(=O)[C@@H]3O[C@@]32C)[C@@H]1C; experiment: purified protein, by the assay type; conditions: other: compound as substrate; P450 TamI L101A_L295I
[3] = system: CC1=CC[C@H]2O[C@]1(C)O[C@H]([C@H](C)/C=C(C)/C=C/C(O)=C1/C(=O)CNC1=O)[C@H]2C; experiment: purified protein, by the assay type; conditions: other: compound as substrate; P450 TamI L101A_L295I
[4] = system: CC1=CC(=O)[C@H]2O[C@]1(C)O[C@H]([C@H](C)/C=C(C)/C=C/C(O)=C1/C(=O)CNC1=O)[C@H]2C; experiment: Michaelis–Menten kinetics, TamI L244A_L295V; assay type: biochemical, Streptomyces sp. 307-9; conditions: other: compound as substrate; P450 TamI L244A_L295V
[5] = system: CC(C=CC(O)=C1C(=O)CNC1=O)=CC(C)C1OC2(C)OC(C(O)C=C2C)C1C; experiment: Michaelis–Menten kinetics, TamI L244A_L295V; assay type: biochemical, Streptomyces sp. 307-9; conditions: other: compound as substrate; P450 TamI L244A_L295V
[6] = system: CC(/C=C/C(O)=C1/C(=O)CNC1=O)=C\[C@@H](C)[C@H]1O[C@@]2(C)O[C@H](C(=O)[C@@H]3O[C@@]32C)[C@@H]1C; experiment: Michaelis–Menten kinetics, TamI L244A_L295V; assay type: biochemical, Streptomyces sp. 307-9; conditions: other: compound as substrate; P450 TamI L244A_L295V

| Substance | Km [1] [µM] | kcat [1] [s⁻¹] | kcat/Km [1] [M⁻¹ s⁻¹] | kcat/Km [2] [M⁻¹ s⁻¹] | Km [3] [µM] | kcat [3] [s⁻¹] | kcat/Km [3] [M⁻¹ s⁻¹] | kcat/Km [4] [M⁻¹ s⁻¹] | Km [5] [µM] | kcat [5] [s⁻¹] | kcat/Km [5] [M⁻¹ s⁻¹] | Km [6] [µM] | kcat [6] [s⁻¹] | kcat/Km [6] [M⁻¹ s⁻¹] |
| --- | --- | --- | --- | --- | --- | --- | --- | --- | --- | --- | --- | --- | --- | --- |
| P450 TamI L101A_L295I (Streptomyces sp. 307-9; L101A/L295I) | 120.1 ± 33.5 | 0.94 ± 0.16 | 7820 | 625 | 3.8 ± 0.6 | 0.11 ± 0.005 | 28500 |  |  |  |  |  |  |  |
| P450 TamI L244A_L295V (Streptomyces sp. 307-9; L244A/L295V) |  |  |  |  |  |  |  | 1000 | 115.6 ± 22.4 | 0.0212 ± 0.00167 | 183 | 7.0 ± 0.9 | 0.0119 ± 0.000383 | 1700 |
